In PubChem BioAssay AID624417 (National Center for Advancing Translational Sciences (NCATS), 2012):
Several values for one entry are separate records, joined by “and”; a condition that tells them apart may be missing. Identical values can stand only once. Out of some 410,000 compounds screened, about 6,400 (1.6%) were called active. The shares of active, inactive and inconclusive entries below differ from those in the screen. Calls come from the whole dose curve; as a rule, active = well fitted inhibition curve with a large enough effect; inconclusive = small, poorly fitted or top-dose-only effect; inactive = no such curve, though single readings can be large or run the other way. Potencies beside an inconclusive call are fits to weak or partial responses and may not hold up. Square brackets hold non-standard residues; d marks the D form. Peptide text beside a SMILES is read from it. ξ: configuration not given here. ξLac(3-iPr) = CC(C)CC(O)C(=O)O; NMeV = CN[CH](C(=O)O)C(C)C; NMeA = CN[CH](C)C(=O)O; βAla = NCCC(=O)O

These compounds were tested against Glucagon-like peptide 1 receptor (Homo sapiens) (UniProt P43220) (assay: qHTS of GLP-1 Receptor Inverse Agonists (Inhibition Mode)). Conditions: HEK293 GLP-1R CRE-luciferase, luminescence, 24 h; Potency: GLP-1R form is constitutively active unless noted; series mostly up to 38.3 µM.
Chain of UniProt P43220 (P43220 whole entry, looked up): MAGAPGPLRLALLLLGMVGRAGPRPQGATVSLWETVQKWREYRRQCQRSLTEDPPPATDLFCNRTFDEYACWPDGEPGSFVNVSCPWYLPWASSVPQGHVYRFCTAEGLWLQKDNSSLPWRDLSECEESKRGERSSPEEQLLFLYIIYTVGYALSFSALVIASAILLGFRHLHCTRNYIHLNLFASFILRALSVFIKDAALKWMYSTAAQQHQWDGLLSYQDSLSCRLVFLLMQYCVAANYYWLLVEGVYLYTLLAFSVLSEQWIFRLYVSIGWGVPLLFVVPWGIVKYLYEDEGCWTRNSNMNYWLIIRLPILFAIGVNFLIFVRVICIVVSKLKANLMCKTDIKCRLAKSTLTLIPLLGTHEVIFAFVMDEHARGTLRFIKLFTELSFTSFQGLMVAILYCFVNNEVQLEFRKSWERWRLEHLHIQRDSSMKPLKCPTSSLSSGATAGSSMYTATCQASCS
Procedure, shortened: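 Luminescence readout: a drop in cAMP-driven luciferase signal flags inverse agonism at a constitutively active GLP-1R stably expressed in HEK293. Compound exposure lasted 24 hr at 37 deg C, 5% CO2.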
Note: nearly all actives have a fitted effect of over 55% in size.
Potency is the fitted concentration of half-maximal effect; tags give direction and shape of the fitted curve.

Structure (SMILES)	Potency
CNC(=O)Oc1ccc(-c2cn3cc(C)ccc3n2)cc1	inconclusive: 2.24 µM [inhibitor, partial curve, poor fit]
COc1ccc2nc(NC(=O)c3nc(S(=O)(=O)Cc4cccc(C)c4)ncc3Cl)sc2c1	inconclusive: 28.2 µM [inhibitor, single point]
CSc1cccc(NC(=O)C2CCN(C(=O)c3cnn(-c4ccccc4)c3-n3cccc3)CC2)c1	inconclusive: 28.2 µM [inhibitor, single point]
CCOC(=O)C1(CCc2ccccc2)CCN(Cc2ccc(NC(C)=O)cc2)CC1	inconclusive: 15.8 µM [inhibitor, single point]
COc1ccc(Cl)cc1C(=O)C1CCCN(Cc2cnc(C)s2)C1 (configuration not stated)	inconclusive: 6.31 µM [inhibitor, partial curve]
COc1ccc(NC(=O)C2C3CCC(O3)C2C(=O)O)c(OC)c1 (configuration not stated)	inconclusive: 28.2 µM [inhibitor, single point]
O=C(C1CCN(S(=O)(=O)c2ccc(Br)s2)CC1)N1CCN(c2ccccc2)CC1	inconclusive: 7.94 µM [inhibitor, partial curve, poor fit]
CCOc1ccc(N(C(C)C(=O)Nc2cc(Cl)ccc2OC)S(C)(=O)=O)cc1 (configuration not stated)	inconclusive: 10 µM [inhibitor, partial curve, poor fit]
O=C(Nc1ccc(OC(F)(F)F)cc1)C1CCN(S(=O)(=O)c2cccs2)CC1	active: 5.01 µM
COc1ccc(-n2nnnc2C(c2ccccc2OC(F)(F)F)N2CCC3(CC2)C(=O)NCN3c2ccccc2)cc1 (configuration not stated)	inconclusive: 10 µM [inhibitor, partial curve, poor fit]
Cc1cc(C(=O)Cn2nnc(-c3ccc(Cl)cc3)n2)c(C)n1-c1ccccc1	inconclusive: 28.2 µM [inhibitor, single point]
N#CC(C(=O)C12CC3CC(CC(C3)C1)C2)c1nc2ccccc2[nH]1 (configuration not stated)	active: 1.12 µM
O=c1[nH]c2ccccc2n1C1CCN(C(c2nnnn2Cc2ccccc2)C2CC2)CC1 (configuration not stated)	inconclusive: 2.24 µM [inhibitor, full curve]
CC(=O)c1cn(Cc2ccc(F)cc2)c2ccccc12	inconclusive: 20 µM [inhibitor, single point]
Cc1ccc(NC2=NCCCS2)cc1Cl	inconclusive: 7.94 µM [inhibitor, partial curve]
FC(F)(F)c1ccccc1CCN1CCNCC1	inconclusive: 3.98 µM [inhibitor, full curve]
C=C1N2CCC(CC2)C1(O)c1ccc(C)c(C)c1 (configuration not stated)	inactive
COC(=O)C1C(O)CC2CCC1N2C (configuration not stated)	inactive
CCC(C)C1NC(=O)C2CCCN2C(=O)C(CC(C)C)OC(=O)CCNC(=O)C(C)N(C)C(=O)C(C(C)C)N(C)C1=O (configuration not stated) (cyclo([ξLac(3-iPr)]PI[NMeV][NMeA][βAla]); configuration not given here)	inconclusive: 8.91 µM [inhibitor, partial curve]

Structure (SMILES)	Potency
C#CCN(C[C@@H]1[C@@H](OC(=O)Nc2c(C)noc2C)[C@@H](OC(=O)Nc2c(C)noc2C)Cn2c(=O)n(CCCCCC)c(=O)n21)S(=O)(=O)c1ccc(C)cc1	inconclusive: 28.2 µM [inhibitor, single point]
CCN(CC)P(=O)(Oc1ccccc1)Oc1ccccc1	inconclusive: 11.2 µM [inhibitor, partial curve, poor fit]
CCC(COC(=O)c1cc(OC)c(OC)c(OC)c1)(c1ccccc1)N(C)C (configuration not stated)	inconclusive: 5.62 µM [inhibitor, full curve, poor fit] and inconclusive: 891 nM [inhibitor, full curve, poor fit] and inconclusive: 4.47 µM [inhibitor, full curve]
O=C(C1CC(c2ccc(Cl)c(Cl)c2)=NO1)N1CCC2(CC1)OCCO2 (configuration not stated)	inactive
CCn1ccnc1CN1CCCC(C(=O)c2cc(C)c(OC)c(C)c2)C1 (configuration not stated)	inconclusive: 22.4 µM [inhibitor, single point]
CCOC(=O)CNC(=O)N1c2ccccc2Sc2ccccc21	inconclusive: 10 µM [inhibitor, single point]
CC(C)(C)c1ccc(S(=O)(=O)Nc2ccc(O)c(Sc3nc4ccccc4s3)c2)cc1	inconclusive: 11.2 µM [inhibitor, partial curve, poor fit]
CC(C)n1c(N2CCN(S(=O)(=O)c3cccc([N+](=O)[O-])c3)CC2)nc2ccccc21	inconclusive: 10 µM [inhibitor, partial curve, poor fit]
COc1ccc(-n2nnnc2C(c2ccccc2)N2CCC3(CC2)C(=O)NCN3c2ccccc2)cc1 (configuration not stated)	inconclusive: 14.1 µM [inhibitor, single point]
O=c1[nH]cc(F)c(=O)[nH]1	inconclusive: 11.2 µM [inhibitor, single point]
CCOP(=O)(OCC)C(NC(=O)c1cccc2ccccc12)C(Cl)(Cl)Cl (configuration not stated)	inconclusive: 28.2 µM [inhibitor, single point]
O=C(c1cc2nc(-c3ccccc3)cc(-c3ccccc3)n2n1)N1CCC2(CC1)OCCO2	inconclusive: 28.2 µM [inhibitor, single point]
CCCC1=Nc2cc(C(=O)NCCc3ccc(OCC)cc3)ccc2Sc2ccccc21	inconclusive: 4.47 µM [inhibitor, full curve, poor fit]
O=C(c1ccc(C(F)(F)F)cc1)C1CCCN(Cc2ccncc2)C1 (configuration not stated)	inconclusive: 3.55 µM [inhibitor, partial curve, poor fit]
O=C(NC(=S)N1C[C@H]2C[C@H](C1)c1cccc(=O)n1C2)c1ccc(Cl)cc1	inactive
COc1ccc(/C=C2/C(=O)N(Cc3ccco3)C(=O)N(C(C)C)C2=O)cc1	inconclusive: 28.2 µM [inhibitor, single point]
CCc1ccc(-n2nc(C)c3c2NC(=O)CSC3c2ccc(C(=O)OC)cc2)cc1 (configuration not stated)	inconclusive: 8.91 µM [inhibitor, partial curve, poor fit]
CCCC[C@@H](C)C[C@@H](C)C(=O)N(C)[C@@H](CC(C)C)C(=O)N[C@H](C(=O)N(C)[C@H](C(=O)N1C[C@@H](O)C[C@H]1C(=O)N1C(=O)C=C[C@@H]1C)C(C)C)C(C)OC(C)=O (some centres not stated)	inconclusive: 14.1 µM [inhibitor, partial curve, poor fit]
O=C(CN1CCN(S(=O)(=O)c2cc(Br)ccc2Br)CC1)NCc1ccccc1Cl	inconclusive: 12.6 µM [inhibitor, single point]

Structure (SMILES)	Potency
COc1ccc2c3c1OC1C(=O)CC[C@@]4(O)[C@@H](C2)N(C)CC[C@]314 (some centres not stated)	inconclusive: 28.2 µM [inhibitor, single point]
Cc1ccccc1-c1nc(CN2C(=O)CN=C(c3ccccc3)c3ccccc32)c(C)o1	inconclusive: 11.2 µM [inhibitor, partial curve, poor fit]
Cc1ccc(CN2C3CCCC2CC(NC(=S)NCc2ccccc2)C3)cc1 (configuration not stated)	inconclusive: 12.6 µM [inhibitor, partial curve, poor fit]
CCCCCN1C(=O)c2cc(OC)ccc2[C@@]2(C(=O)OCC)Cc3cc(OC)ccc3[C@@H]12	active: 7.08 µM [setting not given]
CCOC(=O)C1(c2ccccc2)CCN(CCC(=O)Nc2ccc(C(=O)OC)cc2)CC1	inconclusive: 11.2 µM [inhibitor, partial curve, poor fit]
Cc1cc(N2CCCC2)ccc1C=C(C#N)C#N	inactive
C1=NCCc2c1[nH]c1ccccc21	inconclusive: 7.94 µM [inhibitor, partial curve, poor fit]
CCC1Nc2ncnc(N3CCN(c4ccccn4)CC3)c2N(Cc2ccc(Br)cc2)C1=O (configuration not stated)	inconclusive: 12.6 µM [inhibitor, partial curve, poor fit]
Cc1ccc2c(c1)cc(C(=O)Nc1ccccc1C)n2C	inconclusive: 0.501 µM [inhibitor, full curve, poor fit]
Cc1nc(-c2cccc(CN(C)C(=O)Oc3ccc([N+](=O)[O-])cc3)c2)no1	inconclusive: 3.98 µM [inhibitor, partial curve, poor fit]
O=C1CN=C(c2ccccc2)c2ccccc2N1Cc1ccc(C(F)(F)F)cc1	inconclusive: 5.62 µM [inhibitor, full curve, poor fit]
COc1ccc(-n2nnnc2C(CCc2ccccc2)N2CCC3(CC2)C(=O)NCN3c2ccccc2)cc1 (configuration not stated)	inconclusive: 28.2 µM [inhibitor, single point]
COc1ccc(Nc2c(-c3cc(Br)ccc3O)nc3ncccn23)cc1OC	inconclusive: 28.2 µM [inhibitor, single point]
O=C1NC(=O)N(Cc2ccc(F)cc2)C(=O)/C1=C\c1ccc([N+](=O)[O-])s1	inactive
CCn1c(=N)n(Cc2ccccc2F)c2ccccc21	inconclusive: 5.62 µM [inhibitor, partial curve]
CN(C)C(=O)Oc1ccc(Br)cc1C(=O)Nc1ccc(F)c(Cl)c1	inconclusive: 11.2 µM [inhibitor, partial curve, poor fit]
CCn1c(O)c(C=Nc2ccc(N3CCOCC3)cc2)c(=O)n(CC)c1=S	inactive
O=C(c1ccc(-c2ccccc2)c(F)c1)C1CCCN(CCO)C1 (configuration not stated)	inconclusive: 3.16 µM [inhibitor, partial curve, poor fit]
O=[N+]([O-])c1ccc(N(CCO)CCO)c2c1no[n+]2[O-]	inconclusive: 28.2 µM [inhibitor, single point]
